Assay results taken from PMC4336329 (PLoS ONE, 2015).
In all, about 310,000 compounds went through this assay and about 14,000 (4.5%) showed an effect of 50% or more. The effect is printed as a negative number. The list shows a part of the results.

Target: human ether-à-go-go-related gene (hERG) potassium channel (human, UniProt Q12809)
Assay: primary screen, population patch clamp on CHO cells stably expressing hERG
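Also: peak tail current of the secondary pulse compared with the same well before compound.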

human ether-à-go-go-related gene (hERG) potassium channel, sequence (Q12809 whole entry, looked up): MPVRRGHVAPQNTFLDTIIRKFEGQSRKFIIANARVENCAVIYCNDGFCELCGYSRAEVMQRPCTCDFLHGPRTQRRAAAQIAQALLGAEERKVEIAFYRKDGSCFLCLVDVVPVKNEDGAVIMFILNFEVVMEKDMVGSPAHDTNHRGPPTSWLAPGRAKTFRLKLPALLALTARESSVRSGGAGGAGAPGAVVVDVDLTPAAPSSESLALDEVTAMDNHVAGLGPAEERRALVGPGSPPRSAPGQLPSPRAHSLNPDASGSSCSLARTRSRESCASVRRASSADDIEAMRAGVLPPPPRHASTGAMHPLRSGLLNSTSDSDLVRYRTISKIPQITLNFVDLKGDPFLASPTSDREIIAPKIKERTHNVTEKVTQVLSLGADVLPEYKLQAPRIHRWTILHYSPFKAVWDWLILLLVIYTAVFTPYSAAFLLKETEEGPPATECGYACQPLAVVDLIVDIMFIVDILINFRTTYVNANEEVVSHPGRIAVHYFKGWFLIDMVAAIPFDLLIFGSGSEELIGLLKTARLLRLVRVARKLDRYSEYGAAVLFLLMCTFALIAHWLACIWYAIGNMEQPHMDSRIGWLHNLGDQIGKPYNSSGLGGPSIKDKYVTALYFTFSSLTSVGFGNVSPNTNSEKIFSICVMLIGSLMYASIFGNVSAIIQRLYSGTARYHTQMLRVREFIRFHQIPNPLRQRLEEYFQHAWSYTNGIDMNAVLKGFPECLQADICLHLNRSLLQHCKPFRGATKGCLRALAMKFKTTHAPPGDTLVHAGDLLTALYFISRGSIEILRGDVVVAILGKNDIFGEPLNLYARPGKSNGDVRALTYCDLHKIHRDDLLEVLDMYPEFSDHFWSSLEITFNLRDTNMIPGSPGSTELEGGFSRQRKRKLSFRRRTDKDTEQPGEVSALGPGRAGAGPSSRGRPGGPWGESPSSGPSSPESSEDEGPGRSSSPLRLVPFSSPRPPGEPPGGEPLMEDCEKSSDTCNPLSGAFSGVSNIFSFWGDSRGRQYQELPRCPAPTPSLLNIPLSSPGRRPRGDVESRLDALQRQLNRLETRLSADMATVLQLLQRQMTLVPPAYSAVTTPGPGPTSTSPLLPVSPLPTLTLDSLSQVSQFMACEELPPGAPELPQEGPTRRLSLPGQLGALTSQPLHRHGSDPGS

| Compound | hERG current change (%, negative = inhibition) at 10uM [%] |
| --- | --- |
| Cc1cc(=O)oc2cc(OCC(=O)NCCCN3CCCC3=O)ccc12 | 29.5 |
| COCCC(=O)N1CCC(Oc2ccc(C(=O)NCc3cc(C)n(C)n3)cc2)CC1 | 17.7 |
| COc1ccc(CCN2CC(C(=O)OCC(=O)N(C)Cc3ccccc3)CC2=O)cc1OC (stereo not shown) | -6.91 |
| Cc1nc(-c2ccc(C(=O)N3CCCC3)cc2)cs1 | 4.74 |
| COc1ccc(NC(=O)CN(Cc2ccccc2)Cc2ccccc2)cc1S(N)(=O)=O | -36.7 |
| COc1ccc(C)cc1-n1nnnc1SCC1CCCCO1 (stereo not shown) | -14.8 |
| O=C(CSC1=NC(=O)C(Cc2ccccc2)C(=O)N1)NC1CCCCC1 (stereo not shown) | 12.1 |
| COc1ccc(C(=O)c2c[nH]c(C(=O)NCc3cccnc3)c2)cc1 | -12.7 |
| Cn1cccc1-c1nc2ccc(NC(=O)c3ccco3)cc2[nH]1 | -21.2 |
| Cc1sc2ncn(CC(=O)N(CC(=O)NC3CCCC3)Cc3cccs3)c(=O)c2c1C | -31.2 |
| COc1cccc(C2c3c(-c4ccccc4O)n[nH]c3C(=O)N2Cc2ccco2)c1 (stereo not shown) | -0.711 |
| COc1ccc(-c2csc3ncnc(N4CCN(c5ccccc5Cl)CC4)c23)cc1 | 17.1 |
| COc1ccc(Cl)cc1C(=O)NC(=S)Nc1nc(C)cc(C)n1 | 3.65 |
| CCOC(=O)c1[nH]c2ccc(OC)cc2c1NC(=O)CN1CCC2(CC1)OCCO2 | 12.3 |
| NC(=O)NC(=O)COC(=O)c1cccc(S(=O)(=O)N2CCCCCC2)c1 | -21.4 |
| O=C(c1ccco1)N1CCN(C(=O)c2ccccc2NS(=O)(=O)c2ccc(F)cc2)CC1 | -12.2 |
| O=C(COC(=O)C1CCN(S(=O)(=O)c2cccc3cccnc23)CC1)c1ccc([N+](=O)[O-])cc1 | 13.1 |
| NC(=O)CCCSc1nc2ccccc2[nH]1 | 13.3 |
| COc1ccc(OCC(O)CNC(C)c2ccccc2)cc1.Cl (stereo not shown) | 5.12 |
| NS(=O)(=O)c1ccc(NNC(=O)c2ccccc2)cc1 | 18.7 |
| COc1ccc(C(=O)N/N=C(\C)CC(=O)Nc2ccc3ccccc3c2)c(OC)c1 | 19.6 |
| COc1ccc(CC(=O)OCn2nnc3ccccc3c2=O)cc1OC | 17.5 |

| Compound | hERG current change (%, negative = inhibition) at 10uM [%] |
| --- | --- |
| Cc1cccc(-c2nc(CS(=O)CC(=O)NCc3ccco3)c(C)o2)c1 (stereo not shown) | -13.1 |
| O=C(NCC(=O)N(CC1CCCO1)C(C(=O)NC1CCCCC1)c1ccccc1)c1ccco1 (stereo not shown) | -0.18 |
| CC(C)C(=O)Nc1ncc(Cc2ccccc2Cl)s1 | 11.7 |
| CCN(CC)CCNC(=O)CCc1n[nH]c(=O)c2ccccc12 | -9.65 |
| c1ccc(Cc2nn3c(COc4ccccc4)nnc3s2)cc1 | 6.61 |
| Cn1c(=O)c(-c2cc(Br)ccc2N)nc2ccccc21 | -29.3 |
| COc1ccc(CCC(=O)Nc2cccc(S(=O)(=O)N3CCCCCC3)c2)cc1OC | -30.8 |
| NC(=O)c1ccc(NC(=O)COC(=O)CCCN2C(=O)c3cccc4cccc(c34)C2=O)cc1 | 5.32 |
| Cc1ccc(Nc2ncc3c(n2)CC(C)(C)CC3=O)cc1 | -10 |
| Cn1c(NC(=O)c2ccco2)c(-c2ccccc2Cl)c(=O)c2ccccc21 | -3.6 |
| O=C(c1ccco1)N1N=C(c2ccc(Cl)cc2)CC1(O)C(F)(F)F (stereo not shown) | 8.44 |
| CC(=O)Nc1ccc(S(=O)(=O)NCCC(=O)Nc2ccc(C)c(F)c2)cc1 | -0.433 |
| CCOC(=O)C1=C(C(F)(F)F)Nc2ncnn2C1c1cc(OC)ccc1OC (stereo not shown) | 11.5 |
| CN(c1c(C#N)c(C(F)(F)F)nn1C)N(S(C)(=O)=O)S(C)(=O)=O | 14.3 |
| Cc1nn(Cc2ccc(C(=O)NC(C)(C)C)o2)c(C)c1Br | 1.8 |
| CC1(C)C(c2ccccc2)=NC(c2ccc(Br)cc2)N1O (stereo not shown) | 26.1 |
| COCc1cccc(C2=CC(=O)C[C@H](c3ccc(F)cc3)C2)c1 | -20.5 |
| CCC(C)NC(=O)C1CCC(CNS(=O)(=O)c2ccc3c(c2)CC(C)N3C(C)=O)CC1 (stereo not shown) | 3.26 |
| O=C(Nc1ccccc1)c1ccc(N2CCN(c3ccccn3)CC2)c(S(=O)(=O)N2CCOCC2)c1 | -11.3 |
| Cc1cccc(C(=O)NCCNC(=O)c2cccc(C)c2)c1 | -13 |
| O=C1Oc2ccccc2C(=O)/C1=C/N1CCN(c2ccccc2F)CC1 | -0.353 |
| CCCCN(C)C(=O)Cn1nc(-c2ccc(Cl)cc2)ccc1=O | -36.7 |

| Compound | hERG current change (%, negative = inhibition) at 10uM [%] |
| --- | --- |
| COc1ccc(NC2CCCN(C(=O)c3ccc4[nH]c(C)c(C)c4c3)C2)cc1OC (stereo not shown) | 8.71 |
| CCC(=O)N1CCC2(CC1)Oc1ccc(F)cc1C(=O)C21CC(c2cccnc2)=NO1 (stereo not shown) | -7.68 |
| COc1ccc(C(=O)Nc2ccccc2C(=O)N2CCCCCC2)cc1 | 9.26 |
| Cc1nn(C)c(C)c1CCC(=O)N1CCCC(C(=O)c2cccc(OC(C)C)c2)C1 (stereo not shown) | -9.07 |
| COC(=O)c1cc(C(=O)c2cc(F)ccc2O)cn2c(=O)c3c(C)c(C)sc3nc12 | 10.9 |
| Cc1cc(NC(=O)c2ccc(-c3ccccc3F)o2)no1 | 3.01 |
| C=CCN1C(=O)c2ccccc2NC1c1cc(Br)cs1 (stereo not shown) | -11.3 |
| O=C(OCN1C(=O)c2ccccc2C1=O)c1ccco1 | 6.83 |
| O=C(COC(=O)c1ccc([N+](=O)[O-])s1)Nc1ccccc1 | -26 |
| C=CCc1cc(OC)ccc1OCC(O)CN1CCN(c2ccc(OC)cc2)CC1 (stereo not shown) | -59.7 |
| COc1cccc2cc(C(=O)Nc3ccc(S(=O)(=O)NCC4CCCO4)cc3)c(=O)oc12 (stereo not shown) | -22.2 |
| N#Cc1ccccc1S(=O)(=O)N1CCN(CC(O)CN2CCOCC2)CC1.O=C(O)C(=O)O (stereo not shown) | -14.5 |
| Cc1ccccc1-n1c(N)cc(=O)[nH]c1=S | 13.2 |
| CCCN1C(=S)c2ccccc2C1c1ccccc1 (stereo not shown) | 6.96 |
| O=C(CC12CC3CC(CC(C3)C1)C2)N1CCCC1 | 10.4 |
| CC(Sc1nnc(Nc2ccccc2)s1)C(=O)NC1CCCc2ccccc21 (stereo not shown) | 6.98 |
| CNC(=O)c1c(Cl)cnn1-c1ccccc1 | 12.2 |
| O=c1[nH]c2ccccc2c(=O)n1-c1ccc(Cl)cc1Cl | 8.11 |
| Cc1ccc(CCN2CC(C(=O)N3CCC4(CC3)OCCO4)CC2=O)cc1 (stereo not shown) | 9.41 |
| Cc1ccc(S(=O)(=O)N2CCN(Cc3nnc(-c4c(-c5ccccc5)noc4C)o3)CC2)cc1 | -30.7 |
| O=C(CN1c2ccccc2Sc2ccccc21)NNC(=S)Nc1ccc(Cl)cc1Cl | -2.84 |
| C/C(=N\N=C(c1ccccc1)c1ccccc1)c1ccco1 | 25.8 |

| Compound | hERG current change (%, negative = inhibition) at 10uM [%] |
| --- | --- |
| CC1(C)Cc2c(cnn2-c2ccc(F)cc2)C(NC(=O)CN2CCCC2=O)C1 (stereo not shown) | 5.98 |
| CN1CCN(C(=S)Nc2ccccc2Cl)CC1 | 14.2 |
| CCOc1cc(C(=O)N2CCC3(CC2)NCCc2[nH]cnc23)cc(OCC)c1OCC | 21.3 |
| Br.COc1ccc(-c2cn3ccccc3n2)cc1OC | -0.714 |
| CCOc1ccc(S(=O)(=O)NC2=NCCCCC2)cc1 | 3.57 |
| COc1ccc(/C=C/c2nc(-c3ccccc3O)n[nH]2)cc1 | 25.1 |
| CCOC(=O)c1sc(-c2ccc(Cl)cc2)nc1O | -1.36 |
| O=S(=O)(NCc1ccc2c(c1)OCO2)c1ccc(F)cc1 | -3.91 |
| O=C(Cn1nc2n(c1=O)-c1ccccc1SC2)N/N=C/c1cccs1 | 6.45 |
| COC(=O)c1ccc(NC(=O)c2ccccc2NS(=O)(=O)c2ccccc2)cc1 | 6.09 |
| O=[N+]([O-])c1ccc(Sc2n[nH]c(-c3ccc(Cl)cc3Cl)n2)nc1 | -10.3 |
| Fc1cccc(NC(=S)N2CCc3ccccc32)c1 | 8.54 |
| CC1CCN(c2ncccc2C(=O)O)CC1 | -16.2 |
| Cc1ccc(S(=O)(=O)N2[C@@H](c3cccc(Cl)c3)C(C(=O)O)=CC[C@H]2c2cccs2)cc1 | 13.7 |
| Br.CCn1c(=N)n(CC(=O)c2ccc(OC)c(OC)c2)c2ccccc21 | -13.7 |
| CCN(CC(=O)Nc1ccc(NC(C)=O)cc1)C(=O)C1COc2ccccc2O1 (stereo not shown) | 13.3 |
| O=C(COc1ccc2c(-c3ccccc3)cc(=O)oc2c1)NCCCn1ccnc1 | -48.7 |
| O=C(CSc1ccccc1)NCc1ccccc1 | 12 |
| O=C(NCC(=O)N(c1cccnc1)C(C(=O)NC1CCCC1)c1ccc(F)cc1)c1ccco1 (stereo not shown) | 17.4 |
| COC(=O)CSc1nnc(-c2ccccc2OC)n1-c1ccc(C)cc1 | -10.5 |
| CCNC(=O)COC(=O)c1[nH]c(C)c(C(=O)OC)c1C | 8.24 |
| CC(=O)Nc1ccc(S(=O)(=O)Nc2ccc(-n3cnnn3)cc2)cc1 | 11.5 |
